Positions count from the first letter of the chain named. Results are given in words; binding and its absence hold for the method and conditions named. For some assays here: In cells and extracts the contact can be indirect. Some binding calls cover weakened binding; strength is not graded here. For some assays here: Sequences can lack the tags named with a protein.
Assays:
[1] = biological target: Flag-Rab2A (wild type), stably expressed in HepG2 cells (UniProt P61019); assay: pull-down; in vitro binding assay in tubes: GST-PPARγ2 purified from a prokaryotic expression system, Flag-tagged protein pulled down with anti-Flag beads from HepG2 cells, analysed by immunoblotting; both purified
[2] = biological target: T1, Flag-TBC1D1 (wild type), stably expressed in HepG2 cells (human) (UniProt Q86TI0); assay: as above
T1 sequence: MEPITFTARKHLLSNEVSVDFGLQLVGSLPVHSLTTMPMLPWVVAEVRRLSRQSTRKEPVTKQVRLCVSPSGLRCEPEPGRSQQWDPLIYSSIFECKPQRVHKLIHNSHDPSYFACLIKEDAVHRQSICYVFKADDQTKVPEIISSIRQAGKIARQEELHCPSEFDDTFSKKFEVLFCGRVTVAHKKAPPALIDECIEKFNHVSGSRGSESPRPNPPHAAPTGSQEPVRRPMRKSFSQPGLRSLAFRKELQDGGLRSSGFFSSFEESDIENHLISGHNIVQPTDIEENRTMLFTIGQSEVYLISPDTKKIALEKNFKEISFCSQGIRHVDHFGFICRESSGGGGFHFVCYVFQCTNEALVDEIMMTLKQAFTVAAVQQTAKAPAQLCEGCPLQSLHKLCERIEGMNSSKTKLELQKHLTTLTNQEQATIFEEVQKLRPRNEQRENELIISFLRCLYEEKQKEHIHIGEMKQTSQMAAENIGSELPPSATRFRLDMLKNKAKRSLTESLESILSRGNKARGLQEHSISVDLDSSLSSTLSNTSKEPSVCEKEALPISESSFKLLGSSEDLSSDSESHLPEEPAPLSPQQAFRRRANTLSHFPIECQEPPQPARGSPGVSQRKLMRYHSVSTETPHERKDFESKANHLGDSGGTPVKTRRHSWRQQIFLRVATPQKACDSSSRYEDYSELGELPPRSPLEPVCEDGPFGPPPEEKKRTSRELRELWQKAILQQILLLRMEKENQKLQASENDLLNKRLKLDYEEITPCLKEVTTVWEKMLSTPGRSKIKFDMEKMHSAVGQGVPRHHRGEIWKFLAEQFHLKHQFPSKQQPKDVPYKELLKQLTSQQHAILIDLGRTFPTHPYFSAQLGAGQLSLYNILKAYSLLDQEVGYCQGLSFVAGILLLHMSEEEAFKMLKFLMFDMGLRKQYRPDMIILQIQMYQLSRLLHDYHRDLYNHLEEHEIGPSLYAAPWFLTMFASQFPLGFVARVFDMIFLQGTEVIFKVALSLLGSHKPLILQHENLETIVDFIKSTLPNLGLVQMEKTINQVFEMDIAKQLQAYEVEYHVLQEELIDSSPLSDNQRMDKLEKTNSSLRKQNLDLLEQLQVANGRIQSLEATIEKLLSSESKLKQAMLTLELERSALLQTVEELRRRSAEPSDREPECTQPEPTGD

Amino acid sequences for entries named in this document (tags omitted). A change or cut given only in a name is not applied to a line headed by its entry.
UniProt P37231: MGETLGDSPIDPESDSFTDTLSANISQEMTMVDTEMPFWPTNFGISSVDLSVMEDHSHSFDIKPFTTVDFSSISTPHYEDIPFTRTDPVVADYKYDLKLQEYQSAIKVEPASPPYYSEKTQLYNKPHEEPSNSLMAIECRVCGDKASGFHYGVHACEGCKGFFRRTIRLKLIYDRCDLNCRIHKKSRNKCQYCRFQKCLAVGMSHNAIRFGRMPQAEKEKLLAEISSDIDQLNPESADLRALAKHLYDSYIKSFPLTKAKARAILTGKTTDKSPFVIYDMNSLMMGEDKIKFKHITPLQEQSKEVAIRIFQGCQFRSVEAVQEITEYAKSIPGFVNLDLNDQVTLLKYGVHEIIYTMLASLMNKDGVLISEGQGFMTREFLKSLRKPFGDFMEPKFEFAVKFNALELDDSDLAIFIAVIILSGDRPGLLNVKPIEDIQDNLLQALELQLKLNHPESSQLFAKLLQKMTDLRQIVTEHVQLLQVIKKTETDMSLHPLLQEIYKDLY

[3] = biological target: T2, Flag-TBC1D1^S237A, from HepG2 cells (human) (UniProt Q86TI0); assay: as above
T2 sequence: T1 sequence with S237A

[4] = biological target: Flag-Rab2A^Q65L, expressed in HEK293T cells (UniProt P61019); assay: co-IP; HEK293T cells transfected with the indicated plasmids for 2 days, lysed, immunoprecipitated with anti-Flag beads, analysed by immunoblotting
[5] = biological target: T3, Flag-Rab2A^S20N, expressed in HEK293T cells (UniProt P61019); assay: as above
T3 sequence: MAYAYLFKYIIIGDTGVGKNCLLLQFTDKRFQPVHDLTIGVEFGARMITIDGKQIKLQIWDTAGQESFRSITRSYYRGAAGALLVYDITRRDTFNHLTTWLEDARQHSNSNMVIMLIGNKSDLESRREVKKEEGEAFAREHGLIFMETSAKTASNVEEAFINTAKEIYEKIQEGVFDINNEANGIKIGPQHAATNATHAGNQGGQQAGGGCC

[6] = biological target: T4, Flag-TBC1D1 (wild type), expressed in HEK293T cells (human) (UniProt Q86TI0); assay: as above
T4 sequence: T1 sequence

[7] = biological target: Flag-Rab2A (wild type), stably expressed in HepG2 cells (UniProt P61019); assay: co-IP; HepG2 cells stably expressing the Flag-tagged protein, immunoprecipitated with anti-Flag beads, endogenous PPARγ detected by immunoblotting
[8] = biological target: T1, Flag-TBC1D1 (wild type), stably expressed in HepG2 cells (human); assay: as above

“GST-PPARγ2 (from UniProt P37231-1 1-505)” was tested, and the binding [1] was “binds”, the binding [2] was “binds” and the binding [3] was “binds”.
For “PPARγ2-MYC, expressed in HEK293T cells (from UniProt P37231-1 1-505)”, the binding [4] was “binds”, the binding [5] was “no binding” and the binding [6] was “binds”.
For “endogenous PPARγ of HepG2 cells (from UniProt P37231 1-505)”, the binding [7] was “binds” and the binding [8] was “binds”.

Source: paper PMC8809606
